The text below walks through data of PubChem BioAssay AID330 (DTP/NCI, 2004).

For this assay, the system named is P388 leukemia ip, CD2F1 mice, survival T/C. Briefly: NCI In Vivo Anticancer Drug Screen. Data for tumor model P388 Leukemia (intraperitoneal) in CD2F1 (CDF1) mice. Conditions: endpoint: median survival time, higher = longer survival.
Setting [1] is: dose: 25.0 mg/kg/injection, schedule: Q01DX009 (ip), vehicle: saline with Tween-80.

SMILES strings stand for the structures. Toxic doses and inconclusive results are not listed. Some entries of the source have several records that differ or are many. Only these are listed. There may be further records. Values that stand side by side are repeats across runs, samples, wells, individuals or studies. Records carry a tag for their origin. Letters count within one entry. Marks such as (2×) say how often a value occurs here.

In the case of `CCNC(=O)OCc1c(COC(=O)NCC)c(-c2ccc(Cl)c(Cl)c2)n2c1CCC2`, under setting [1], the T/C is 103 % of control and 165 % of control. Turning to `COc1cc2c(c(OC)c1OC)-c1ccc(OC)c(=O)cc1[C@@H](NC(=O)CCl)CC2`, the T/C (dose: 0.62 mg/kg/injection, schedule: Q01DX009 (ip), vehicle: saline) was 113 % of control and 168 % of control. `O=C(Nc1ccc(C2=NCCCN2)cc1)c1ccc(C(=O)Nc2ccc(C3=NCCCN3)cc2)cc1`: the T/C (dose: 6.48 mg/kg/injection, schedule: Q04DX003 (ip), vehicle: Klucel (hydroxypropylcellulose) (HPC)) is 121 % of control and 158 % of control. Take `NC(=O)Nc1cc(NC(N)=O)cc(N(CCCl)CCCl)c1`: the T/C is 100 % of control and 150 % of control (dose: 5.0 mg/kg/injection, schedule: Q04DX003 (ip), vehicle: water); 116 % of control and 157 % of control (dose: 10.0 mg/kg/injection, schedule: Q04DX003 (ip), vehicle: water). As for `NC(Cc1cc([N+](=O)[O-])ccc1CN(CCCl)CCCl)C(=O)O` (stereo not given), the T/C (dose: 12.5 mg/kg/injection, schedule: Q01DX001 (ip), vehicle: Klucel (hydroxypropylcellulose) (HPC)) is 88 % of control and 186 % of control. Regarding `COc1cccc2c1C(=O)c1c(O)c3c(c(O)c1C2=O)C[C@@](O)(CO)C[C@@H]3OC1CC(N)C(O)C(C)O1` (stereo not given in full), under “dose: 3.13 mg/kg/injection, schedule: Q01DX009 (ip), vehicle: water”, the T/C is 122 % of control and 167 % of control. Take `COc1cc2c(c(OC)c1O)-c1ccc(OC)c(=O)cc1[C@@H](NC(C)=O)CC2`: the T/C (dose: 20.0 mg/kg/injection, schedule: Q01DX009 (ip), vehicle: Klucel (hydroxypropylcellulose) (HPC)) was 90 % of control and 180 % of control. `C[As](C)SCC(NC(=O)CCC(N)C(=O)O)C(=O)NCC(=O)O` (stereo not given): the T/C (dose: 50.0 mg/kg/injection, schedule: Q01DX009 (ip), vehicle: saline) was 113 % of control and 152 % of control.

For the compound `CO[C@H](/C(C)=C/C=C/C(C)=C/c1coc(C)n1)[C@H](C)[C@H]1C[C@@H](O)[C@@]2(C)O[C@H]2/C=C/[C@@H](C)[C@@H]2C[C@@H](CC(=O)O2)C[C@H]2O[C@@H]2C(=O)O1`, the T/C (dose: 40.0 micrograms/kg/injection, schedule: Q01DX005 (ip), vehicle: Klucel (hydroxypropylcellulose) (HPC)) is 116 % of control and 150 % of control. `CC(C)(C)[Si](C)(C)OC(=O)Nc1ccc(N(CCCl)CCCl)cc1`: for the setting “dose: 20.0 mg/kg/injection, schedule: Q04DX003 (ip), vehicle: distilled water + Tween-80”, the T/C is 89 % of control and 182 % of control. `NC(CSC(c1ccccc1)(c1ccccc1)c1ccccc1)C(=O)O` (stereo not given): the T/C is 118 % of control and 159 % of control (dose: 12.0 mg/kg/injection, schedule: Q01DX009 (ip), vehicle: water); 118 % of control, 154 % of control, 159 % of control (dose: 17.8 mg/kg/injection, schedule: Q01DX009 (ip), vehicle: water); 159 % of control, 169 % of control, 181 % of control [sample A] and 119 % of control [sample B] under setting [1]; 118 % of control and 163 % of control (2×) (dose: 26.7 mg/kg/injection, schedule: Q01DX009 (ip), vehicle: water). Regarding `COc1cccc2c1C(=O)c1c(O)c3c(c(O)c1C2=O)C[C@@](O)(C(=O)CO)C[C@@H]3OC1CC(N)C(OC)C(C)O1` (stereo not given in full), the T/C (dose: 0.64 mg/kg/injection, schedule: Q04DX003 (ip), vehicle: saline) was 105 % of control and 181 % of control. Regarding `C1CN1c1nnc(N2CC2)nn1`, the T/C (dose: 15.0 mg/kg/injection, schedule: Q01DX005 (ip), vehicle: saline) was 88 % of control and 166 % of control. For `COc1cccc2c1C(=O)c1c(O)c3c(c(O)c1C2=O)C[C@@](O)(C(=O)CO)C[C@@H]3OC1CC(NC=O)C(O)C(C)O1` (stereo not given in full), the T/C is, setting by setting: (dose: 3.13 mg/kg/injection, schedule: Q01DX009 (ip), vehicle: Klucel (hydroxypropylcellulose) (HPC)) 116 % of control and 154 % of control; (dose: 6.25 mg/kg/injection, schedule: Q01DX009 (ip), vehicle: Klucel (hydroxypropylcellulose) (HPC)) 104 % of control and 157 % of control; (dose: 12.5 mg/kg/injection, schedule: Q01DX009 (ip), vehicle: Klucel (hydroxypropylcellulose) (HPC)) 110 % of control and 170 % of control; (dose: 25.0 mg/kg/injection, schedule: Q01DX009 (ip), vehicle: Klucel (hydroxypropylcellulose) (HPC)) 112 % of control and 200 % of control. For the compound `COc1ccc(CC2C(=O)NC(C)C(=O)N(C)C3C(=O)N(C)C(Cc4ccc(O)c(c4)Oc4ccc(cc4)C3O)C(=O)NC(C)C(=O)NC(C)C(=O)N2C)cc1` (stereo not given), the T/C by setting is: (dose: 0.25 mg/kg/injection, schedule: Q01DX009 (ip), vehicle: saline + alcohol) 113 % of control and 153 % of control; (dose: 0.5 mg/kg/injection, schedule: Q01DX009 (ip), vehicle: Klucel (hydroxypropylcellulose) (HPC)) 116 % of control and 155 % of control; (dose: 0.5 mg/kg/injection, schedule: Q01DX009 (ip), vehicle: saline + alcohol) 116 % of control and 153 % of control; (dose: 2.0 mg/kg/injection, schedule: Q01DX009 (ip), vehicle: Klucel (hydroxypropylcellulose) (HPC)) 120 % of control and 167 % of control.
